This is an account of results in paper PMC6208348 (2018).

Some targets named below: Shc1-pTyr317; Shc1-pTyr239; EGFR-pTyr1086; VCP-pTyr805-tail7; EGFR-pTyr954.
Test in all cases: FP

B1: wild-type Src SH2 domain (domain or fragment)
chain: not shown
For orientation: Kd means a measure of binding affinity in units of concentration. B1: the Kd with Shc1-pTyr317 was 2.81 µM; in the experiment with Shc1-pTyr239 it was 1.07 µM; with EGFR-pTyr1086, 10.9 µM; with VCP-pTyr805-tail7 it was 9.77 µM; with EGFR-pTyr954, 13.3 µM.
